Experiment in all cases: MST
In one data set the target is T1, BnGRP7 (Brassica napus) (UniProt A0A078J5Z4).
T1 sequence: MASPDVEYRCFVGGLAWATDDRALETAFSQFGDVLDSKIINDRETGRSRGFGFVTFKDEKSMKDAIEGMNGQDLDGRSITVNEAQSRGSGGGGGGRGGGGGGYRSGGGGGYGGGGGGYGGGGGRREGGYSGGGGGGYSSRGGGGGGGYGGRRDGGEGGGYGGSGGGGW
The conditions noted are these: 25 mM Tris-HCl pH 8.0, 150 mM NaCl (150 mM LiCl for Sc1 LiCl), 1 mM DTT, 0.1 mg/ml BSA, 20 nM Cy5-RNA, temperature not stated, low values mean tight binding.

The subject of data set [1] is AtGRP7 (Arabidopsis thaliana). Conditions: MST: 25 mM Tris-HCl pH 8.0, 150 mM NaCl, 1 mM DTT, 0.1 mg/ml BSA, 20 nM Cy5-RNA, protein titrated from 50-75 uM, about 2 min incubation, temperature not stated.
Data set [2] has as its target T2, AtGRP7 (Arabidopsis thaliana) (UniProt Q03250).
T2 sequence: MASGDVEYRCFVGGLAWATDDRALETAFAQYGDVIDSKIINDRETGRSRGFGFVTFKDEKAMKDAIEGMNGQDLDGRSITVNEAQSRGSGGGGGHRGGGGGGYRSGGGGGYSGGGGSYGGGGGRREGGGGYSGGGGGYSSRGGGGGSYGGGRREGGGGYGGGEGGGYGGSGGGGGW
Conditions: 25 mM Tris-HCl pH 8.0, 150 mM NaCl (150 mM LiCl for Sc1 LiCl), 1 mM DTT, 0.1 mg/ml BSA, 20 nM Cy5-RNA, temperature not stated, low values mean tight binding.

Data set [3] addresses T3, AtBnGRP7 (Arabidopsis thaliana / Brassica napus chimera) (UniProt Q03250).
T3 sequence: T1 sequence with P4G, S29A, F31Y, L35I, S61A
The conditions noted are these: 25 mM Tris-HCl pH 8.0, 150 mM NaCl (150 mM LiCl for Sc1 LiCl), 1 mM DTT, 0.1 mg/ml BSA; 20 nM Cy5-RNA; about 2 min incubation; temperature not stated; low values mean tight binding.

[4] abbreviates: about 50% of A as m6A, random, about 2 min ….
The mark [5] stands for this setting: about 50% of C as m5C, random, about 2 min ….

A word on the Kd: it is the equilibrium constant for the complex coming apart. Low readings indicate a tighter complex, high ones a looser complex.

Changes are numbered by the printed parent chain.

“AUGAAAGUAAACUGCUUGCUUGCACACUUAGACGUGUAA [BnaC05g32740D]” yielded a Kd with BnGRP7 (Brassica napus) (about 2 min incubation) of 6.69 µM.
As to AtCOR15A CDS RNA, the Kd in data set [1] was determined as 62 nM.
The same measure, in the same setting: under GFP RNA stands 9170 nM.
In the case of “GGAUGACAACCGUAGCCGCAACAGGCAUCAACGUCGCGACUCCACGACUGGUCAUUCGACCAGCGGCUCGUCUAUACGCCCCGGUCCGUUUGAAUUACCCGUGGAAAUUCGGUUCGAUGAACCGGAUGGUUACGUCGGUGAAGGCGACAUCGGAAGGAGGGAUGAUAUCGGAUAAGGUGGAGAAGAGUAUUCAGGAAGCGAAGGAGACUUGCGCUGACGAUCCUGUGAGCGGAGAGUGUGUUGCGGCGUGGGACGAGGUGGAGGAGCUGAGCGCCGCGGCGAGUCACGCUAGGGACAAGAAGAAAGCUGGUGGAUCCGAUCCUUUGGAAGAAUACUGCAGUGAUAAUCCUGAGACUGAUGAGUGUCGUACUUAUGACAACUGA [CP12-1]”, the Kd was 6.08 µM with BnGRP7 (Brassica napus) (about 2 min incubation); 13.9 µM with BnGRP7 (Brassica napus) (setting [4]); 10.4 µM with BnGRP7 (Brassica napus) (setting [5]); 686 nM in data set [2] (about 2 min incubation); 429 nM in data set [2] (setting [4]); 256 nM in data set [2] (setting [5]).
Take “GGAUGCAGUACUACGAAACCCGUGAGAAAGAAUACUACGAUGUGGCUCAAGGUCAGAGCCGCCAGAGCUAUGGCCAGAACCACCAGGGAUAUGGACAGAGCCAAAGUCGCCCAGUAUAUGGGAAUAGUCCGACUCUGAACUACCGUAGCCACGGUGGGUUUCUUGAUGGGUUAUUCAAGGGUAAAAAUGGUCAAAAGGGUCAAAAUGGCUUAGGGUCGUUUCUAGGGCAACACAAGAACCAAGAUACUAACCAGGGCCAUGGACAUGGGAAGCUCUUAGGACAGCACCAGAAGAAAACUCAUGAGACAAACAAAGGUGUUAAUGGCCUAGGAAUGUUCAUAAACAAUGGAGAGAAGAAACAUAAGAAGCAAAAUGAGCACAAGAAGAAGAAGAACAAGGAUGGGCAUGCCAGUGGCAAUGAGAGUGGAAGCAGCAGCGGUAGCGACAGCGAGUAA [BnPARCL]”: the Kd stood at 4.07 µM with BnGRP7 (Brassica napus) (about 2 min incubation); 7.93 µM with BnGRP7 (Brassica napus) (setting [4]); 15.7 µM with BnGRP7 (Brassica napus) (setting [5]); 99.7 nM in data set [2] (about 2 min incubation); 24 nM in data set [2] (setting [4]); 208 nM in data set [2] (setting [5]).
Turning to “GGAUGGCGUCCCCUGAUGUUGAGUACCGGUGCUUCGUUGGAGGUCUAGCUUGGGCCACCGACGACAGAGCUCUCGAGACCGCCUUCUCCCAGUUCGGCGACGUUCUCGAUUCCAAGAUCAUUAACGAUCGUGAGACGGGACGAUCAAGGGGAUUCGGAUUCGUCACCUUCAAGGAUGAGAAGUCGAUGAAGGACGCCAUCGAGGGGAUGAACGGACAGGAUCUCGACGGUCGCAGCAUCACUGUUAACGAGGCUCAGUCUCGUGGAAGCGGUGGUGGCGGAGGAGGCCGCGGCGGAGGCGGUGGUGGAUACCGCAGCGGAGGCGGUGGUGGUUACGGAGGAGGCGGUGGUGGAUACGGUGGAGGUGGUGGAAGACGCGAGGGUGGUUACAGUGGUGGCGGUGGAGGUGGUUACUCGUCGAGAGGAGGUGGUGGCGGUGGAGGUUACGGUGGCAGGCGUGAUGGUGGUGAAGGUGGAGGUUACGGAGGAAGCGGUGGUGGUGGUUGGUAA [BnGRP7]”, the results for the Kd (with BnGRP7 (Brassica napus) (about 2 min incubation); in data set [3]; in data set [2] (about 2 min incubation)) were 7.38 µM, 414 nM and 2970 nM, respectively.
“GGAUGGGAAAUCGUUGUGCUAGAACUCCUUGUUGUACAAAGUUGUGGUCAUGUAUAUGCUGCUGCUGCUGCAGCAACAACAAAGCUCGAGCAAGAAGCCAACACGGGUCUAAAGGGAAUGUCUAUUCGAUAAACAGAAUUGAGAAAUGGGAAGAAAAGAUAACAGAAGCUAACAACAAUGGCAAGAUUCUGGUGGUGUAUUUCAGCGCGCCGUGGUGUGUACCUUGUAAAAAGAUAGAACCAGUAUUCAGAGAACUUGCUUCUAGAUACCCUUCAAUGAUUUUUGUAACCAUUGAUGUGGAAGAACUCGCUGAGUUUAGUGAUGAAUGGAAUGUGGAAGCUACACCAACUAUAGUGUUUCUUAAAGAUGGGAGACAAAUGGAUAAGCUUGUUGGUGCUGAAACCUCAGAGCUUCAGAAGAAAACAGCUGCAGCUGCUGAACUCUUACUCAGAAAACCAUAA [THIOREDOXINH10]”: the Kd with BnGRP7 (Brassica napus) (about 2 min incubation) was 3.36 µM; in the data set with BnGRP7 (Brassica napus) (setting [4]), 9.95 µM; in the data set with BnGRP7 (Brassica napus) (setting [5]), 12.3 µM; in data set [2] (about 2 min incubation) it was 627 nM; in data set [2] (setting [4]), 247 nM; in data set [2] (setting [5]) it was 1630 nM.
On to “GGAUGUCCCCGAGGACCAGGGUACAAUCCUUCAUCCACCGCACUGUAAAAAUCUUCUCCGUCUGUCUCACCUCCAUGCUAGAAGAUCUUGACAAGGUCUUCGAUCCUAAACGCCGACUCAUCUCUCCCCAGUCUCACGGAAGCCUCACCGCCUCUCCAAAGACGUCGGGAAUCGUCACCGUCGAGCAAGACCGCGUCUCGGCGAAAGCUCGAACUGGUUCAGAGAAGCAAGUAUAUCGGCUAGGAUUGAUUGAGGAGGAGAAGAGCAAAAGGAAAAAAGGAAAGGAGAAGGAGUUUCGCCUCCGGCACCACCGCAAGGGCAGGCCGGAGCUAGGGUUUCAGGCUGAAGGAGGCGGCUUCUGA [BnaA09g50830D]”, for which the Kd with BnGRP7 (Brassica napus) (about 2 min incubation) came to 2.75 µM. This lies in the single-digit micromolar range.
Take “GGCAUCACACCUUCCCUCUCUUCACUGUAAACCUACUACAUCUCCCCCUCUCUCUCAUUUCAAUGGCGUCCCCUGAUGUUGAGUACCGGUGCUUCGUUGGAGGUCUAGCUUGGGCCACCGACGACAGAGCUCUCGAGACCGCCUUCUCCCAGUUCGGCGACGUUCUCGAUUCCAAGAUCAUUAACGAUCGUGAGACGGGACGAUCAAGGGGAUUCGGAUUCGUCACCUUCAAGGAUGAGAAGUCGAUGAAGGACGCCAUCGAGGGGAUGAACGGACAGGAUCUCGACGGUCGCAGCAUCACUGUUAACGAGGCUCAGUCUCGUGGAAGCGGUGGUGGCGGAGGAGGCCGCGGCGGAGGCGGUGGUGGAUACCGCAGCGGAGGCGGUGGUGGUUACGGAGGAGGCGGUGGUGGAUACGGUGGAGGUGGUGGAAGACGCGAGGGUGGUUACAGUGGUGGCGGUGGAGGUGGUUACUCGUCGAGAGGAGGUGGUGGCGGUGGAGGUUACGGUGGCAGGCGUGAUGGUGGUGAAGGUGGAGGUUACGGAGGAAGCGGUGGUGGUGGUUGGUAAUUAGAUUUUAGAGUUUGAGGUUGUUGUUGUGUCUGUUCCGUUUCUGGGUUCGGGUUUAUGUUUCUAUCUCUAUGUGUUAUGUUUGGUUCUUGCUGUUUUGGUUGUAACAGUUCGUGGUUAGGUAUCUGAUAUCUGGAAACGCAAUGUUAAAUCACUUUUUCAUUAUCUUGCCGUGUUUUAUUUUUUAAGUUUAACAAAU [BnGRP7]”: the Kd with BnGRP7 (Brassica napus) (about 2 min incubation) is 4.89 µM; in data set [2] (about 2 min incubation) it was 123 nM.
In the same order, the values of Notchless are 6.97 µM and 3670 nM.
Regarding Sc1 G-quadruplex RNA, the Kd in data set [1] (150 mM LiCl instead of NaCl (G4 unfolded)) was determined as 463 nM; in data set [1], 6900 nM.
With UGGAGAAGCAGGGCACGUGCA [m5C-miR164], the dissociation constant (Kd) stood at 16.9 µM with BnGRP7 (Brassica napus) (setting [5]) and 143 nM in data set [2] (setting [5]).
Consider UGGAGAAGCAGGGCACGUGCA [m6A-miR164], for which the dissociation constant (Kd) with BnGRP7 (Brassica napus) (setting [4]) came to 15.8 µM; in data set [2] (setting [4]), 142 nM.
In data set [1], defensin like protein 3 RNA displayed a dissociation constant (Kd) of 2720 nM.

For the origin of these results see publication PMC11239674.
